The structures appear in SMILES notation. In all, about 45,000 compounds went through this assay and about 65 (0.1%) were called active. Calls come from the whole dose curve; as a rule, active = well fitted activation curve with a large enough effect; inconclusive = small, poorly fitted or top-dose-only effect; inactive = no such curve, though single readings can be large or run the other way. Some of the results follow.

Chain of UniProt P54803 (P54803 whole entry, looked up): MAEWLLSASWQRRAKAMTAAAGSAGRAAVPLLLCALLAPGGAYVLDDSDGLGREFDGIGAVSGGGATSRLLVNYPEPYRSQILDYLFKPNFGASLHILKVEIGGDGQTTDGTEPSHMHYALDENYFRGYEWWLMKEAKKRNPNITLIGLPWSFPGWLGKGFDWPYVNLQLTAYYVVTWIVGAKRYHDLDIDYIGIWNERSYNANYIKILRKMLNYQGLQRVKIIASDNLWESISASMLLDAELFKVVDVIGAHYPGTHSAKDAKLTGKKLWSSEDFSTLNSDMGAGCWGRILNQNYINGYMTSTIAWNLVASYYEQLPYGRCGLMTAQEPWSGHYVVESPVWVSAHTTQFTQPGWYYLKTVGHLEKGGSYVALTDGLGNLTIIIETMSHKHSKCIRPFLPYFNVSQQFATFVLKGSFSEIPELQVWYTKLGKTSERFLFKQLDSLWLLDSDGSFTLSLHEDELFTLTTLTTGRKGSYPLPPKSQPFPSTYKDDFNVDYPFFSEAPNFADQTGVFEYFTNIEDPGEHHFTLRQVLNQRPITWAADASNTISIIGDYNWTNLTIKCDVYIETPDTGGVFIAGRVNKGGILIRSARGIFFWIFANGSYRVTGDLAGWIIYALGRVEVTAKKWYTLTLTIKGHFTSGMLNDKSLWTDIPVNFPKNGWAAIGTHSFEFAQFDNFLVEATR

The target in the experiment is Galactocerebrosidase (Homo sapiens) (UniProt P54803). The experiment is described as follows: A Novel Cell-Based Assay to Identify Small Molecules for B -Galactocerebrosidase. Note: 0% is about no effect; nearly all actives have a fitted effect of over 65% in size. The conditions noted are these: 145M-Twi-hGALC-G270D cells (Twitcher mouse brain line with human GALC G270D), HMU-beta-Gal fluorescence, 48 h; series mostly up to 57.5 µM; activation: at the top concentration. A digest of the protocol:
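Live 145M-Twi cells (Twitcher mouse brain-derived, GALC-null) stably expressing human GALC-G270D, with a wild-type GALC line, were compound-treated. Residual GALC activity was then read as fluorescence from 0.1 mM final HMU-β-gal at pH 5.2; higher signal means activation.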
On to `CCOC(=O)c1ccc(NC(=O)c2c(NCc3cccs3)sc3c2CCCC3)cc1`, for which the “activation” value was inactive: -13.9%.

In the case of `COc1ccc(OC(=O)c2nc(SCc3ccc(F)cc3)ncc2Cl)cc1`, the “activation” value was inactive: 0.758%.

As for `O=c1c(S(=O)(=O)c2ccccc2)cn(Cc2cccc(F)c2)c2cc(N3CCOCC3)c(F)cc12`, the “activation” value was inactive: -10.2%.

Take `COc1cccc(-c2nnc(-c3ccccc3NC(=O)c3cccc(C(F)(F)F)c3)o2)c1`: the “activation” value is inactive: 14.1%.

Take `CCOC(=O)c1cc(OC(=O)c2ccc(C)cc2)n(-c2ccccc2)n1`: the “activation” value was inactive: -8.74%.

As to `Cc1ccc(C2=NN(CC(=O)NCCC(C)C)C(=O)CC2)cc1`, the “activation” value was inactive: -9.68%.

Regarding `CCOc1ccc(NC(=O)c2cnn3c2NC(c2cccc(OC)c2)=CC3c2ccccc2)cc1` (stereo not given), the “activation” value is inactive: -12.7%.

For the compound `CC(=O)Nc1ccc(NC(=O)CSc2nc3ccccc3nc2N2CCC(C)CC2)cc1`, the “activation” value is inactive: -8.17%.

On to `COc1ccc(CNC(=O)CN2C(=O)CSc3ccc(S(=O)(=O)N4CCOCC4)cc32)c(OC)c1`, for which the “activation” value was inactive: -0.909%.

Take `COc1cccc(CNC(=O)c2cc(S(=O)(=O)N3CCCCC3)cn2C)c1`: the “activation” value is inactive: -19.8%.

Take `CCOc1ccc(CCNC(=O)CN2N=C(c3ccccc3)CCC2=O)cc1OCC`: the “activation” value is inactive: 19.5%.

Consider `Cc1ccc2nc(N(Cc3cccnc3)C(=O)CCS(=O)(=O)c3ccccc3)sc2c1`, for which the “activation” value was inactive: -17.6%.

For `CC(=O)c1ccc(NC(=O)CSc2nc(-c3cccc(F)c3)nc3c2c(=O)n(C)c(=O)n3C)cc1`, the “activation” value was inactive: -17.8%.

In the case of `Cc1ccc(CN(Cc2ccco2)C(=O)COc2ccc(C(C)C)cc2)cc1`, the “activation” value is inactive: -30.2%.

For the compound `COc1ccc(CNC(=O)c2ccc3c(c2)nc2n3CCOC2)c(OC)c1`, the “activation” value was inactive: 2.75%.

For `Cc1cc(NC(=O)C2=C(O)c3ccccc3S(=O)(=O)N2C)no1`, the “activation” value was inactive: -12.2%.

With `Cc1cc(C)cc(NC(=O)CN2C(=O)c3ccccc3Sc3ncccc32)c1`, the “activation” value is inactive: 2.66%.

As for `CN1C(C(=O)Nc2ccc(F)cc2F)=CC(c2ccc3c(c2)OCO3)=NS1(=O)=O`, the “activation” value is inactive: -11.4%.

For `CCCCN(CC)CCCNC(=O)c1cc2c(=O)[nH]c3ccccc3c2s1`, the “activation” value is inactive: -17%.

With `CCOc1cccc(C2c3c(-c4cc(C)ccc4O)n[nH]c3C(=O)N2Cc2ccco2)c1` (stereo not given), the “activation” value was inactive: -18.1%.

Take `Cc1ccc(CNC(=O)c2cc3c(=O)n(Cc4cccnc4)ccc3nc2C)cc1`: the “activation” value is inactive: -7.69%.

`CCOC(=O)C1CCN(C(=O)c2ccc3c(=O)n4nc(Nc5cc(C)ccc5C)sc4nc3c2)CC1`: the “activation” value was inactive: -2.19%.

For the compound `CCOC(=O)C(C)NC(=O)c1c(C)oc2ncn(CC(C)C)c(=O)c12` (stereo not given), the “activation” value was inactive: 1.67%.

In the case of `COc1ccc(OC)c(CCNC(=O)c2csc3c2CCCCC3)c1`, the “activation” value was inactive: -7.11%.

`Cc1ccc(-c2cc(C(F)(F)F)c(C#N)c(SCC(=O)Nc3ccccc3)n2)cc1`: the “activation” value was inactive: 6.61%.

As to `Cc1cccc(C)c1OCc1nc2c3c(-c4ccccc4)c(-c4ccccc4)oc3ncn2n1`, the “activation” value was inactive: -14%.

As to `COc1cccc(NC(=O)C2CCN(c3nn4cc(-c5ccc(F)cc5)nc4s3)CC2)c1`, the “activation” value was inactive: -17%.

On to `Cc1ccc(NC(=O)Cn2c(=O)oc3cc(S(=O)(=O)NCc4ccccc4)ccc32)cc1`, for which the “activation” value is inactive: -43%.

As for `CCn1cc(C(=O)N2CCN(c3ccc(C(C)=O)cc3)CC2)c2cc(OC)c(OC)cc2c1=O`, the “activation” value is inactive: 2.12%.

On to `CCC(=O)C1=C(c2cccc(OC)c2)N(C(=O)CC)n2c(nnc2C2CCCCC2)S1`, for which the “activation” value was inactive: -2.74%.

For `Cc1csc2nc(COc3ccccc3NC(=O)c3ccc(C(C)(C)C)cc3)cc(=O)n12`, the “activation” value was inactive: 3.28%.

For `Cc1cccc(CNC(=O)CCCn2c(=O)c3cccn3c3ccc(F)cc32)c1`, the “activation” value was inactive: -8.93%.

Take `CCNC(=O)c1nn(-c2ccccc2C)nc1CO`: the “activation” value is inactive: -12%.

Regarding `CC(=O)C1=C(c2ccc(C)c(C)c2)N(C(C)=O)n2c(nnc2-c2ccc(Cl)cc2)S1`, the “activation” value is inactive: -13.3%.

As to `Cc1cccc2c1-c1sc(C(=O)N(C)c3cccc(C(F)(F)F)c3)cc1CO2`, the “activation” value is inactive: -16.8%.

In the case of `Cc1c(C)c2c(c(C)c1OC(=O)c1cccnc1)CC[C@@](C)(CCC[C@H](C)CCC[C@H](C)CCCC(C)C)O2`, the “activation” value is inactive: -8.79%.

With `Cc1c(NC(=O)c2nc3ccccc3nc2N2CCCCC2)cccc1[N+](=O)[O-]`, the “activation” value is inactive: 3%.

On to `Cc1ccccc1OC(=O)CSc1nnc(-c2ccc(F)cc2)o1`, for which the “activation” value is inactive: -8.06%.

As to `O=C(Cn1c(=O)n(-c2ccccc2Cl)c(=O)c2sc3ccccc3c21)NC1CCCCC1`, the “activation” value was inactive: -11.6%.

In the case of `N#Cc1cccc(NC(=O)C2CCN(S(=O)(=O)c3ccc4[nH]c(=O)ccc4c3)CC2)c1`, the “activation” value is inactive: -8.24%.

Take `Cc1ccccc1-n1nc(CO)c(C(=O)NCc2cccs2)n1`: the “activation” value is inactive: 5.4%.

Regarding `Cc1ccc(CN2CCN(CC(=O)Nc3ccc(C)c(C)c3)S2(=O)=O)cc1`, the “activation” value is inactive: 14.8%.

With `CN(C)CCCN1c2ccccc2CCc2ccc(Cl)cc21`, the “activation” value was inactive: -11.6%.

For `CCOc1cc(CNC(=O)NC2COc3ccc(OC)cc3C2)cc(OCC)c1OCC` (stereo not given), the “activation” value is inactive: -5.13%.

In the case of `COC(=O)c1ccccc1NC(=O)Nc1nnc(N2CCC(C)CC2)s1`, the “activation” value was inactive: -5.71%.

For `COc1ccc(N2CC(NC(=O)CCCc3ccccc3)CC2=O)cc1` (stereo not given), the “activation” value is inactive: -5.96%.

Turning to `Cc1ccc(C(=O)Nc2ccc(-c3nc4ccccc4s3)cc2C)cc1C`, the “activation” value is inactive: -4.67%.

With `Clc1ccccc1CNc1ncnc2c1c(-c1ccccc1)cn2-c1ccccc1`, the “activation” value was inactive: -8.71%.

As to `Cc1cc(C)c(NC(=O)Nc2ccc3snnc3c2)c(C)c1`, the “activation” value was inactive: -1.83%.

`Cc1ccc(C)c(Cn2c3ccccc3c3cnn(CC(=O)NCc4ccccc4)c(=O)c32)c1`: the “activation” value was inactive: -17.7%.
